# Data from the RNAGym collection of RNA variant scans (doi:10.7554/elife.90254).
# Read counts are not given, so values of variants with three or more changes are uncertain.
# B1: LINE1-mini (parent)
# chain: GGCAGAGCUCAACACAGCGUGGCAAAGUGGCUGUGGCUAGACUGCC
# Variants of: B1
# Assay: self-cleavage, relative activity (ratio to wild type); higher = more cleavage; in vitro, sequencing; the parent is a self-cleaving ribozyme
row,Variant,self-cleavage
1,U9A A14G A24U U28C G36A C37U,0.07
2,U9A C13G U38C G40A,0.07
3,U9A A11U G21A U43C,0.02
4,U9C A14C U20C,0.02
5,U9C A12C A25U,0.01
6,U9A C13U G30C A39U C45A,0.02
7,U9C A11U A12U A24U G33U,0.01
8,U9A C23G C37U,0.04
9,U9A A11C C13U A26C,0.01
10,U9A A14U C15U G29U,0.09
11,U9A A26G C31G,0.1
12,U9A U28C G36C U43G,0
13,U9C C10A A11C G19U,0.01
14,C8U U43A G44U,0.2
15,U9A U28G C31U G33A G40A,0.05
16,U9A A26U G44A,0.15
17,U9A G29A G40U,0.04
18,U9A U38C G44U,0.05
19,U9A C10G U20A U32A G36A A41G,0.02
20,U9A C37U C42G,0.01
21,U9A A14G G29A G35C,0.02
22,U9A G40A C46A,0.13
23,U9A A14U G21A U28G,0.02
24,U9A G19C C37A,0.02

row,Variant,self-cleavage
1,U9A G27U G30U,0.12
2,U9C A14G G29A,0.05
3,U9A A24U G29U,0.11
4,U9C A12U U32C,0.02
5,U9C A12U U43C,0.04
6,U9C C10A C15A C18U,0.03
7,U9A G22U C37A C45U C46A,0.99
8,U9A C37A G40C,0.18
9,U9A G21A C23U,0.49
10,U9C A25U G35U,0.05
11,U9A G17C G29A A39U G40A,0.14
12,U9A C18A C37A C42G,0.02
13,U9A A14C C18A G19U,0.03
14,U9A G21U C31G U32A G44A,0.01
15,U9A C10A A14C G21U A39U,0.05
16,U9A A11U A16G G40C,0
17,U9A U32A G33C C45A,0
18,U9A A25G G35C,0.07
19,U9A C13U G22C,0.04
20,U9A A12C G30C,0.01
21,U9A C15A G21U G27A C31U U38C,0.05
22,U9C A12G C13G,0.06
23,U9A G33A C46U,0.1
24,U9A C18G G21U G35A,0.01

row,Variant,self-cleavage
1,U9A G29A U32C,0.02
2,U9A C13G G27C G33C A39G,0.04
3,U9A C13G U28C,0.12
4,U9A A14U G19A,0.26
5,U9A A24G C37A,0.27
6,U9A G27C U38G A39U G40C,0.02
7,U9A G17A U43A,0.03
8,U9A G27C U34A G40A,0.14
9,U9C A11C U28G U34C A39U,0.02
10,U9A A11C G30U,0.03
11,U9A A14C G17U G36A,0.05
12,U9A C18A U34C,0.05
13,U9C A11G G27A C37G C42U C46G,0.01
14,U9A C10U A11U C37G U43G,0
15,U9A C13U U32G G33A A39G U43A,0.05
16,U9A G27U A41G,0.13
17,U9A C10U C15A,0.05
18,U9C A12G A24U A25C A39C G40A C42G,0.01
19,U9C A12U A24U C37U,0
20,U9A A11C G29U C46G,0.01
21,U9A U28A U32C U34A C42U,0.12
22,U9A A16G A26G,0.09
23,U9A C15U G30A C31G,0.02
24,U9A G21U A25U G35C C37U,0.13

row,Variant,self-cleavage
1,U9C A26C G35U,0.05
2,C8U U43C G44A C45A,0.02
3,U9A C15A G17C A39G,0.01
4,U9A G21A G27A C42U,0.21
5,U9A A12U A16C G17C G21C U28G,0.04
6,U9A C10A G36C,0.01
7,U9A A14U A16C G36U C42A,0.01
8,U9A C15A A26G,0.07
9,U9C A25U G27A U34C G35A G44C,0
10,U9C A11U A12U U34G A39C G44A,0.02
11,U9A C13U C18A A26U G36U,0.03
12,U9A C13G G36C A41G,0.03
13,U9A G21A C31A U32A G36U A39C,0.02
14,U9A U34A A39G,0.51
15,U9A U34A A39C,0.11
16,U9C A16U U38C A39U A41C,0.01
17,U9A A12U G19A,0.11
18,U9A U28A U38G,0.03
19,U9A A12G U28C,0.01
20,U9C A14G C45A,0.05
21,U9A C10A G33C,0.07
22,U9A C13A A24G C42U,0.05
23,U9A A11U G19A C31U A41G,0.01
24,U9A C13A C18U C23U A24C C31A,0.05

row,Variant,self-cleavage
1,U9A A12U G33C C42G,0.06
2,U9A G30A G44A,0.07
3,U9C A24G G35U A39C,0.01
4,U9A C10G A16G G30U,0.01
5,U9A C15G G29U,0.05
6,U9A C23U G27C,0.03
7,U9A C15U U20C U32G C37G A41G C42A,0.12
8,U9A C10A A14G,0.04
9,U9A C10A U43G C45U,0.07
10,U9A A24U C37U,0.07
11,U9A C10G C18A U34G,0.03
12,U9A C13A G17U A26U G33A,0.06
13,U9A A26G U34C A39C G44A,0
14,U9A U20G C45G C46G,0.11
15,U9A C10G U28A G44C C46U,0.01
16,U9A C10U C18G G36U,0.05
17,U9A A11G G19C C37U C42G,0
18,U9A A12C A16G G22U,0.02
19,U9A A12U G22C C23G A24U G29A C42U,0.05
20,U9A A14U G19U G29U,0.04
21,U9A G27U G29U C46A,0.22
22,U9C A12G U34A G36A,0.05
23,U9A A12G G21U,0.05
24,U9A G33U C45U,0.06

row,Variant,self-cleavage
1,U9C C10A G30C G44U C45G,0.03
2,U9A U28C G33C,0.03
3,U9A C13U G17C G22U C37U,0.13
4,U9A C13G C42A,0.43
5,U9A C31U A39U,0.03
6,U9A C10U U28A,0.1
7,U9A C13U G19U A24U U28C,0.06
8,U9A C10U A11U C37U,0.03
9,U9A A26U G35U C45A,0.21
10,U9A G35A G36C C46U,0.19
11,U9A G35C C42G,0.03
12,C8U U43C C45A,0.3
13,U9A G22A G44A,0
14,U9A A39U C45A,0.04
15,U9A C10A U20C C42A,0.01
16,U9A A14G C23A G36U,0.15
17,U9A A11U G17A C23G,0.03
18,U9A U20A C23U,0.1
19,U9A U20C A25C G27A U38G,0.03
20,U9A A11C C23U A26G,0.01
21,U9A A14C A16U G30C C31U,0.04
22,U9A C10G C45A,0.03
23,U9A A11U G22U A41C,0.01
24,U9A A24U G40U,0.04

row,Variant,self-cleavage
1,U9A A12G C15G,0.04
2,U9A A16G C42A,0.02
3,U9A A24U G36A,0.18
4,U9C A14C C18G A25C G36U,0.01
5,U9A G21A G27U C45A,0.78
6,U9A C15U A39U A41G,0.31
7,U9C A14U G29U G36A,0.03
8,C8U U34C G44A,0.12
9,U9A C15A U38G,0
10,U9A A25G U32C C37A,0.01
11,U9A G21C G27A,0.05
12,U9A C10G G27U G36A,0.03
13,U9A G27C G36A U43G,0.2
14,U9A G19A A25U,0.24
15,U9A C15G A26G G29U C42A C46U,0.01
16,U9C A24G C31U G40C A41U,0.01
17,U9A A24U G44A,0.4
18,U9A A16C C31U,0.04
19,U9A C10U A14U U28C G29A,0.15
20,U9A A12U G27U G35U A39U A41C,0.05
21,U9A G29U C37A C46G,0.22
22,U9C A14G A24G A26C,0
23,U9A G19C G36C,0.04
